Measured values published in PubChem BioAssay AID504332 (National Center for Advancing Translational Sciences (NCATS), 2011).
The campaign covered roughly 350,000 compounds. About 31,000 (8.9%) were called active. The shares of active, inactive and inconclusive entries below differ from those in the screen. The call rests on the fitted dose curve; in most records, active means well fitted inhibition curve with a large enough effect; inconclusive means small, poorly fitted or top-dose-only effect; inactive means no such curve, though single readings can be large or run the other way. Where the call is inconclusive, the potency comes from a doubtful curve fit.
Further: nearly all actives have a fitted effect of over 75% in size.
On the % scale 0 is the no-effect control and ±100 the full control effect; potency means the concentration at half of the fitted maximal effect; tags describe the fitted curve by direction and shape.

What follows are compounds tested against Histone-lysine N-methyltransferase EHMT2 (Homo sapiens) (UniProt Q96KQ7) (assay: qHTS Assay for Inhibitors of Histone Lysine Methyltransferase G9a). Conditions: G9a H3K9 monomethylation, AlphaScreen, 2 h; activity, negative = inhibition: at 59 µM (top of the series) unless noted.
UniProt Q96KQ7, sequence (Q96KQ7 whole entry, looked up): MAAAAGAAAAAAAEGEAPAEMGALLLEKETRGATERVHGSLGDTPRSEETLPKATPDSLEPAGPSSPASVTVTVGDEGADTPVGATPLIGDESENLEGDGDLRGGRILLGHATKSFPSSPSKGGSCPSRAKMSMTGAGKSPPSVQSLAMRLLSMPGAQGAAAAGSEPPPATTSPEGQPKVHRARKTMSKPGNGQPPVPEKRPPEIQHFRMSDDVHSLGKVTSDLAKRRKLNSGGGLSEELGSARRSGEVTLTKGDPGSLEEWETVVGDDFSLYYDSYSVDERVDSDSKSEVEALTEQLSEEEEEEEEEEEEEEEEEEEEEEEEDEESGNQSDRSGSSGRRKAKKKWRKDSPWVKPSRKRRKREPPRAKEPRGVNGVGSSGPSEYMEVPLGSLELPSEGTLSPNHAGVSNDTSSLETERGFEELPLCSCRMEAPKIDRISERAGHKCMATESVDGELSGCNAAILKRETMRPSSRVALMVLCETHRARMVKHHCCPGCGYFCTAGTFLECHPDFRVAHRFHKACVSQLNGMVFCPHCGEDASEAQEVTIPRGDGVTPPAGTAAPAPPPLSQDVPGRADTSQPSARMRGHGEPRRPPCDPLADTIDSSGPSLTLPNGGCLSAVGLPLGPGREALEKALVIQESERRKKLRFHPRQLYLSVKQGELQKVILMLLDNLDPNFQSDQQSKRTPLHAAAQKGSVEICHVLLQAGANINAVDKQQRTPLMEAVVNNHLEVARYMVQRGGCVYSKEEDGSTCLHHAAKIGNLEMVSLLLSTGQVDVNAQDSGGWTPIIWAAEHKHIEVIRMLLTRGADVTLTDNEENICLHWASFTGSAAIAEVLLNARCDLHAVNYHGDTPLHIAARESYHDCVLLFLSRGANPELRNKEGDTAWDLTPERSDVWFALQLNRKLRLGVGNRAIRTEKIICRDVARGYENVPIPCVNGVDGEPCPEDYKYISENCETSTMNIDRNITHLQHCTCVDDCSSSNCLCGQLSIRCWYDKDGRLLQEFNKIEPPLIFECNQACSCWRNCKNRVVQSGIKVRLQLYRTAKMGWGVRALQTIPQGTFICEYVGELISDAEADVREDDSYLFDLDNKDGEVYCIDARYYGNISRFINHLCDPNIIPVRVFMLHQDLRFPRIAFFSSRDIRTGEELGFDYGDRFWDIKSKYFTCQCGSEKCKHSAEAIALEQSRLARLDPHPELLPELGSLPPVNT
How it was run: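 Using a bead-based AlphaScreen, monomethylated H3K9 product from 2 h room-temperature reactions (G9a 20 nM, peptide 500 nM, SAM 20 uM) was detected with 0.5 ug/mL rabbit anti-H3K9me1 antibody.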
With COC(=O)CCCNC(=O)c1ccc(OS(=O)(=O)c2cc([N+](=O)[O-])ccc2C)cc1 the Potency was inconclusive: 79.4 µM [inhibitor, single point].
CC(=O)c1ccc(NC(=O)CSc2c(C(C)C)cnc3c2c(=O)n(C)c(=O)n3C)cc1 was tested, and the Potency was inconclusive: 39.8 µM [inhibitor, single point].
O=C(NC(=S)Nc1cc(Cl)ccc1O)c1cccc(Br)c1 was tested, and the Potency was active: 70.8 µM.
With COc1cccc(/C(O)=C2/C(=O)C(=O)N(CCN(C)C)C2c2ccccn2)c1 (stereo not given) the Potency was active: 22.4 µM.
For CCC(C(=O)Nc1nccs1)c1ccccc1 (stereo not given), the “activity, negative = inhibition” value was inactive: 15.8%.
COc1ccc(C(c2nnnn2CC2CCCO2)N2CCN(c3ccc(F)cc3)CC2)cc1 (stereo not given) was tested, and the activity, negative = inhibition was inactive: -48.3% [at 12.7 µM].
For CCOc1ccc(/C(O)=C2/C(=O)C(=O)N(CCN(CC)CC)C2c2cccs2)cc1 (stereo not given), the activity, negative = inhibition was inconclusive: -78.4% [inhibitor].
With Cc1oc(-c2ccc(Cl)cc2)nc1CN1CCCC(C(=O)NCCc2ccccc2)C1 (stereo not given) the Potency was inconclusive: 31.6 µM [inhibitor, partial curve, poor fit].
COc1ccccc1/C=N/n1c(N)c(C(=O)NC2CCCCC2)c2nc3ccccc3nc21 was tested, and the “activity, negative = inhibition” value was inactive: 16.8%.
With Cc1n[nH]c(=O)c2c(NC(=O)CSc3ccc(Br)cc3)oc(C)c12 the Potency was inconclusive: 89.1 µM [inhibitor, single point].
For CCCCOc1ccc(N=Cc2cccs2)cc1, the Potency was inconclusive: 39.8 µM [inhibitor, single point].
For Cc1ccc(NC(=O)CN(C)C(=O)c2cc(-c3ccccc3)nn2-c2ccccc2)cc1, the Potency was inconclusive: 50.1 µM [inhibitor, partial curve, poor fit].
CCc1ccc(NC(=O)c2cc(-c3ccco3)on2)cc1 was tested, and the Potency was inconclusive: 39.8 µM [inhibitor, single point].
COc1ccc(OC)c(-n2c(C)nc3cc(C(=O)O)ccc32)c1 was tested, and the Potency was inconclusive: 35.5 µM [inhibitor, single point].
For CC(C)c1ccc(CN(Cc2ccco2)c2cnc(S(C)(=O)=O)nc2C(=O)Nc2ccccc2)cc1, the Potency was inconclusive: 25.1 µM [inhibitor, single point].
CCCCCc1nnc(NC(=O)c2cccc(S(=O)(=O)N3CCOCC3)c2)s1 was tested, and the activity, negative = inhibition was inactive: 4.97% [at 2.33 µM].
In the case of COC(=O)c1ccc(Cc2ccc(C(=O)OC)o2)o1, the activity, negative = inhibition is reported as inconclusive: -59.2% [inhibitor].
CCOc1ccc(-c2nc(C#N)c(NC3CC3)o2)cc1 was tested, and the activity, negative = inhibition was inconclusive: -52.7% [inhibitor].
For CCCc1[nH]nc2c1C(c1ccc(OC)cc1OC)C(C#N)=C(N)O2 (stereo not given), the activity, negative = inhibition was inactive: 2.39% [at 12.7 µM].
In the case of Cc1cc2c3c(c1)C1(SCC(=O)N1c1ccc(F)cc1)C(=O)N3C(C)(C)CC2C (stereo not given), the “activity, negative = inhibition” value is reported as inactive: 0.738%.
CCOc1c(Cl)cc(CNCc2ccccn2)cc1OC was tested, and the Potency was active: 39.8 µM.
In the case of COc1ccc(N2CCN(C(CNC(=O)C(=O)NC3CC3)c3ccco3)CC2)cc1 (stereo not given), the Potency is reported as active: 44.7 µM.
In the case of CCCCn1c(SCC(=O)NC(=O)NCc2ccco2)nc2cc(S(N)(=O)=O)ccc21, the Potency is reported as inconclusive: 39.8 µM [inhibitor, single point].
In the case of Cc1ccccc1CS(=O)(=O)c1cnc2ccccc2n1, the Potency is reported as inconclusive: 39.8 µM [inhibitor, partial curve, poor fit].
In the case of COc1ccc(-c2ccc3nnc(SCC(N)=O)n3n2)cc1, the Potency is reported as inconclusive: 20 µM [inhibitor, partial curve, poor fit].
With Nc1ncnc2nc(-c3ccc(N4CCOCC4)nc3)cc(-c3cccc(Br)c3)c12 the Potency was inconclusive: 39.8 µM [inhibitor, partial curve, poor fit].
In the case of CCC1=NN2C(=N)/C(=C\c3cccn3-c3ccc(C)cc3C)C(=O)N=C2S1, the Potency is reported as inconclusive: 11.2 µM [inhibitor, full curve].
In the case of CCOC(=O)c1ccc2c(c1)nc(SCC(=O)c1ccco1)n2CC, the Potency is reported as inconclusive: 39.8 µM [inhibitor, single point].
Cc1ccc(NC(=O)Nc2cn(CC(C)C)c(=O)c3ccccc23)cc1N(C)C was tested, and the Potency was inconclusive: 14.1 µM [inhibitor, partial curve].
For c1ccc(NC2=NCCN2CCCC2CCCCC2)cc1, the activity, negative = inhibition was inactive: 14.8% [at 2.33 µM].
In the case of O=C(O)c1cnc2[nH]c3ccccc3n2c1=O, the Potency is reported as active: 50.1 µM.
With Cc1ccc(C)c(OCC(=O)Nc2ccc(S(=O)(=O)Nc3ccccn3)cc2)c1 the Potency was active: 50.1 µM.
In the case of NC(=O)CC(NC(=O)c1cccc(Br)c1)c1ccc(NC2CCCCCCC2)c([N+](=O)[O-])c1 (stereo not given), the Potency is reported as active: 20 µM.
CNC(=O)c1c(NC(=O)c2nc(SCc3ccc(C)cc3)ncc2Cl)sc2c1CCCC2 was tested, and the “activity, negative = inhibition” value was inactive: 1.09%.
CCOC(=O)c1cc(S(=O)(=O)N2CCN(c3cccc(C)c3C)CC2)[nH]n1 was tested, and the Potency was active: 10 µM.
For CCc1ccc(OCC(=O)NNC(=S)NC(=O)C2CCCCC2)c(Br)c1, the Potency was inconclusive: 8.91 µM [inhibitor, full curve, poor fit].
For Cc1ccc(NCc2nnc(SCC(=O)O)n2Cc2ccccc2)cc1Cl, the “activity, negative = inhibition” value was inactive: -30.6% [at 102 µM].
With COc1ccccc1C(C)N(C)Cc1nc(COc2ccccc2)no1 (stereo not given) the “activity, negative = inhibition” value was inactive: 24.3% [at 102 µM].
CCCS(=O)(=O)c1ncc(Cl)c(C(=O)Nc2c(C(=O)Nc3ccccc3)oc3ccccc23)n1 was tested, and the “activity, negative = inhibition” value was inactive: 1.26%.
For CCCCCCNC(=O)N[C@H](C(=O)NCCC[C@H]1CN2C(=NC[C@H]2C)N1CCC(c1ccccc1)c1ccccc1)C(C)O (stereo not given in full), the Potency was inconclusive: 0.708 µM [inhibitor, partial curve, poor fit].
For CCCOc1ccc(C2=CSC3=NCCN23)cc1Cl, the “activity, negative = inhibition” value was inactive: -12.4% [at 102 µM].
With O=C(COC(=O)c1cc2c(s1)CCCC2)Nc1ccc(Cl)cn1 the Potency was inconclusive: 89.1 µM [inhibitor, single point].
In the case of O=C(NCCc1csc(-c2cccnc2)n1)c1ccc(Br)o1, the Potency is reported as active: 20 µM.
With CCC(C)(C)C1CCC(=NNS(=O)(=O)c2ccc(C)c([N+](=O)[O-])c2)CC1 (stereo not given) the Potency was active: 12.6 µM.
With CN(CC(=O)Nc1cccnc1)S(=O)(=O)c1ccccc1 the Potency was inconclusive: 25.1 µM [inhibitor, partial curve, poor fit].
